Experimental data published in patent US8466115B2, “Spirocyclic isoxazoline derivatives as antiparasitic agents” (Zoetis LLC, priority 2011, dated 2013).
Some of these results come from one statement about several compounds together.

Columns and labels:
[1] = tested on: Soft Tick (Ornithidorus turicata); assay: Soft Tick (Ornithidorus turicata) Blood Feed Assay; type: in vivo; settings: nymph stage ticks fed on treated citrated bovine blood; paralysis and/or death at approximately 24, 48 and 72 hours
[2] = tested on: Flea (Ctenocephalides felis); assay: Flea (Ctenocephalides felis) Membrane Feed Assay-Adult; type: in vivo; settings: adult fleas fed on treated citrated bovine blood for approximately 2 hours; knockdown and/or death at approximately 2 and 24 hours

| SMILES | LD100 [1] | lethal dose 80% (LD80) [2] |
| --- | --- | --- |
| O=C1OC2(CN(C(=O)CC3CC3)C2)c2ccc(C3=NOC(c4cc(Cl)c(F)c(Cl)c4)(C(F)(F)F)C3)cc21 (stereo not drawn) [Example 13, 1-(2-cyclopropylacetyl)-5′-(5-(3,5-dichloro-4-fluorophenyl)-5-(trifluoromethyl)-4,5-dihydroisoxazol-3-yl)-3′H-spiro[azetidine-3,1′-isobenzofuran]-3′-one] | ≤ 0.03 µg/mL | ≤ 1 µg/mL |
| CSCC(=O)N1CC2(C1)OC(=O)c1cc(C3=NOC(c4cc(Cl)c(F)c(Cl)c4)(C(F)(F)F)C3)ccc12 (stereo not drawn) [Example 21, 5′-(5-(3,5-dichloro-4-fluorophenyl)-5-(trifluoromethyl)-4,5-dihydroisoxazol-3-yl)-1-(2-(methylthio)acetyl)-3′H-spiro[azetidine-3,1′-isobenzofuran]-3′-one] | ≤ 0.03 µg/mL | ≤ 1 µg/mL |
| O=C1OC2(CN(C(=O)C3CC3(F)F)C2)c2ccc(C3=NOC(c4cc(Cl)c(F)c(Cl)c4)(C(F)(F)F)C3)cc21 (stereo not drawn) [Example 27, 5′-(5-(3,5-dichloro-4-fluorophenyl)-5-(trifluoromethyl)-4,5-dihydroisoxazol-3-yl)-1-(2,2-difluorocyclopropanecarbonyl)-3′H-spiro[azetidine-3,1′-isobenzofuran]-3′-one] | ≤ 0.1 µg/mL | ≤ 1 µg/mL |
| CC(C)(O)C(=O)N1CC2(C1)OCc1cc(C3=NOC(c4cc(Cl)c(F)c(Cl)c4)(C(F)(F)F)C3)ccc12 (stereo not drawn) [Example 36, 1-(5′-(5-(3,5-dichloro-4-fluorophenyl)-5-(trifluoromethyl)-4,5-dihydroisoxazol-3-yl)-3′H-spiro[azetidine-3,1′-isobenzofuran]-1-yl)-2-hydroxy-2-methylpropan-1-one] | ≤ 0.03 µg/mL | ≤ 3 µg/mL |
| CS(=O)(=O)CC(=O)N1CC2(C1)OCc1cc(C3=NOC(c4cc(Cl)cc(Cl)c4)(C(F)(F)F)C3)ccc12 (stereo not drawn) [Example 51, 1-(5′-(5-(3,5-dichlorophenyl)-5-(trifluoromethyl)-4,5-dihydroisoxazol-3-yl)-3′H-spiro[azetidine-3,1′-isobenzofuran]-1-yl)-2-(methylsulfonyl)ethanone] | ≤ 0.01 µg/mL | ≤ 3 µg/mL |
| CS(=O)(=O)CC(=O)N1CC2(C1)OCc1cc(C3=NOC(c4cc(Cl)cc(C(F)(F)F)c4)(C(F)(F)F)C3)ccc12 (stereo not drawn) [Example 52, 1-(5′-(5-(3-chloro-5-(trifluoromethyl)phenyl)-5-(trifluoromethyl)-4,5-dihydroisoxazol-3-yl)-3′H-spiro[azetidine-3,1′-isobenzofuran]-1-yl)-2-(methylsulfonyl)ethanone] | ≤ 0.01 µg/mL | ≤ 1 µg/mL |
| CS(=O)(=O)CC(=O)N1CC2(C1)OCc1cc(C3=NOC(c4cc(Cl)c(Cl)c(C(F)(F)F)c4)(C(F)(F)F)C3)ccc12 (stereo not drawn) [Example 53, 1-(5′-(5-(3,4-dichloro-5-(trifluoromethyl)phenyl)-5-(trifluoromethyl)-4,5-dihydroisoxazol-3-yl)-3′H-spiro[azetidine-3,1′-isobenzofuran]-1-yl)-2-(methylsulfonyl)-ethanone] | ≤ 0.01 µg/mL | ≤ 3 µg/mL |
| CS(=O)(=O)CC(=O)N1CC2(C1)OCc1cc(C3=NOC(c4cc(Cl)c(Br)c(Cl)c4)(C(F)(F)F)C3)ccc12 (stereo not drawn) [Example 54, 1-(5′-(5-(4-bromo-3,5-dichlorophenyl)-5-(trifluoromethyl)-4,5-dihydroisoxazol-3-yl)-3′H-spiro[azetidine-3,1′-isobenzofuran]-1-yl)-2-(methylsulfonyl)ethanone] | ≤ 0.01 µg/mL | ≤ 1 µg/mL |
| CS(=O)(=O)CC(=O)N1CC2(C1)OCc1cc(C3=NOC(c4cc(C(F)(F)F)cc(C(F)(F)F)c4)(C(F)(F)F)C3)ccc12 (stereo not drawn) [Example 55, 1-(5′-(5-(3,5-bis(trifluoromethyl)phenyl)-5-(trifluoromethyl)-4,5-dihydroisoxazol-3-yl)-3′H-spiro[azetidine-3,1′-isobenzofuran]-1-yl)-2-(methylsulfonyl)ethanone] | ≤ 0.01 µg/mL | ≤ 1 µg/mL |
